In all, about 290,000 compounds went through this assay and about 2,100 (0.72%) were called active. This list was built around the results that the source calls inconclusive (neither active nor inactive); the mix of calls is not that of the screen. Calls follow the shape of the dose curve; as a rule, active = well fitted inhibition curve with a large enough effect; inconclusive = small, poorly fitted or top-dose-only effect, or effect the other way; inactive = flat fitted curve, though single readings scatter. A potency beside an inconclusive call is a rough fit, not a confirmed value.
What follows are compounds tested against Fructose-bisphosphate aldolase (Giardia intestinalis (strain ATCC 50803 / WB clone C6)) (UniProt A8B2U2) (assay: qHTS Assay for Inhibitors of Fructose-1,6-bisphosphate Aldolase from Giardia Lamblia). Details: purified Giardia FBPA; activity, negative = inhibition: at 59.6 µM (top of the series) unless noted.
Sequence of UniProt A8B2U2 (A8B2U2 whole entry, looked up): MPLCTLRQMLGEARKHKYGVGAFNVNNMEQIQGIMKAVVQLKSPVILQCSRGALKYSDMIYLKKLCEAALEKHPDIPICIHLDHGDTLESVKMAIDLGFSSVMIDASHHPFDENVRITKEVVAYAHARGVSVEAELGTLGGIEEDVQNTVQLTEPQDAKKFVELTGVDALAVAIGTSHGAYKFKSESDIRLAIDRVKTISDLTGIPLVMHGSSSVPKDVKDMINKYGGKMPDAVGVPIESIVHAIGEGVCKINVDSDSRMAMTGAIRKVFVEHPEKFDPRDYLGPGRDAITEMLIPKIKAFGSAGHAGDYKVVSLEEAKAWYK
Method in brief: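 Giardia FBPA (40 nM reagent) was preincubated 10 min at RT with compound (up to 57.5 uM final), then substrate plus GAPDH/TPI/NAD/arsenate coupling system with diaphorase/resazurin was added; resorufin fluorescence (525/598 nm) was read after 20 min.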
With `O=C1CCCN1CCC1CCN(C2CC(=O)N(c3ccc(F)cc3)C2=O)CC1` (configuration not stated) the “activity, negative = inhibition” value was inactive: 8.28%.
With `O=c1[nH]c(CNCc2cccnc2)nc2ccccc12` the Potency was inconclusive: 17.7 µM [inhibitor, single point].
With `Cc1ccc(OCc2n[nH]c(=S)n2N)cc1C` the Potency was inconclusive: 17.7 µM [inhibitor, partial curve].
`O=C(CSc1nnc(NC(=O)c2ccccc2Cl)s1)Nc1ccc2c(c1)oc1ccccc12` was tested, and the “activity, negative = inhibition” value was inactive: -9.18%.
With `CCc1nnc(NC(=O)c2nc3nc(C)cc(C)n3n2)s1` the Potency was inconclusive: 17.7 µM [inhibitor, partial curve].
In the case of `COc1ccc(NC(=O)CCCn2cnc3ccccc3c2=O)cc1`, the “activity, negative = inhibition” value is reported as inactive: -0.896%.
With `CCn1c(SCC(=O)c2cc(OC)ccc2OC)nnc1C(C)C` the Potency was inconclusive: 15.8 µM [inhibitor, partial curve].
With `O=C(c1ccccc1)N1CCN(Cc2ccccc2C(F)(F)F)CC1` the Potency was active: 19.9 µM.
`COc1ccc(Sc2nc(-c3ccccc3)ncc2C(=O)O)cc1` was tested, and the Potency was inconclusive: 17.7 µM [activator, single point].
In the case of `O=[N+]([O-])c1ccc(O)c(C=Nc2cccc3ncccc23)c1`, the Potency is reported as inconclusive: 6.29 µM [inhibitor, partial curve].
`Clc1ccc(/C=N/c2c(-c3ccco3)nc3ccccn23)cc1` was tested, and the Potency was inconclusive: 17.7 µM [inhibitor, partial curve].
In the case of `Cc1ccc(C)c(S(=O)(=O)Nc2cc(SCC(=O)O)c(O)c3ccccc23)c1`, the Potency is reported as active: 2.23 µM.
For `O=C(O)Cn1cc(/C=N/Nc2ccc([N+](=O)[O-])cn2)c2ccccc21`, the “activity, negative = inhibition” value was inactive: -2.17%.
For `CC(Nc1ccc(N2CCOCC2)cc1)C(=O)N1c2ccccc2CC1C` (configuration not stated), the Potency was inconclusive: 15.8 µM [inhibitor, partial curve].
In the case of `Cn1c(N/N=C\c2cccc(O)c2)cc(=O)n(C)c1=O`, the Potency is reported as inconclusive: 15.8 µM [inhibitor, single point].
In the case of `c1ccc(-c2ccccc2OCCN2CCCCC2)cc1`, the Potency is reported as inconclusive: 15.8 µM [inhibitor, partial curve].
In the case of `Cc1nnc(NC(=O)CSc2nnc(-c3ccco3)n2C(C)C)s1`, the Potency is reported as inconclusive: 28.2 µM [inhibitor, partial curve].
`O=C(N/N=C/c1c(O)n(CCC2=CCCCC2)c(=S)[nH]c1=O)c1ccccc1` was tested, and the Potency was inconclusive: 5.61 µM [activator, single point].
With `CC(=O)Oc1ccc(C(=O)[C@H]2[C@H]3C(=O)N(c4ccc(C)cc4)C(=O)[C@H]3[C@@H]3C=CC=NN32)cc1` the Potency was inconclusive: 15.8 µM [inhibitor, partial curve].
`Nc1nc(Nc2ccccc2F)nc(N2CCOCC2)c1[N+](=O)[O-]` was tested, and the “activity, negative = inhibition” value was inactive: -1.61%.
`O=C(NC(=S)Nc1cccnc1)c1cccs1` was tested, and the Potency was inconclusive: 19.9 µM [inhibitor, partial curve].
With `O=C(N/N=C/c1ccccn1)c1ccc(N/N=C/c2ccccn2)cc1` the Potency was inconclusive: 28.1 µM [inhibitor, single point].
`Cc1ccc(-c2cc(-c3ccc(F)cc3)nc(N)c2C#N)o1` was tested, and the Potency was inconclusive: 19.9 µM [inhibitor, partial curve].
For `Oc1ccc(-c2onc3ccc(Cl)cc23)cc1`, the Potency was inconclusive: 25.1 µM [inhibitor, partial curve].
In the case of `Cc1cc(Cl)nc(-n2nc(C)cc2C)n1`, the “activity, negative = inhibition” value is reported as inactive: -0.101%.
For `Cc1ccc(S(=O)(=O)NC2(C(F)(F)F)C(=O)Nc3c2c(=O)[nH]c(=O)n3-c2ccccc2)cc1` (configuration not stated), the Potency was inconclusive: 15.8 µM [inhibitor, single point].
In the case of `O=C(O)c1cccnc1SCc1cn2cc(Cl)ccc2n1`, the Potency is reported as inconclusive: 31.5 µM [inhibitor, single point].
With `COc1cc(/C=C2\SC(=S)N(CCC(=O)Nc3ccc(O)cc3)C2=O)cc(OC)c1OC` the “activity, negative = inhibition” value was inactive: 5.55%.
For `COc1cccc(-c2cn3nc4c(nc3n2)CCCC4)c1`, the Potency was inconclusive: 15.8 µM [inhibitor, partial curve].
With `COc1cccc(CNC(=O)CSc2nnc3c(n2)[nH]c2ccc(C)cc23)c1` the “activity, negative = inhibition” value was inactive: -15.5%.
With `O=C(CNCc1ccccn1)N1CCc2ccccc2C1` the Potency was inconclusive: 7.92 µM [inhibitor, partial curve].
For `CN1CCc2c(sc(NC(=O)Cc3ccccc3)c2C(N)=O)C1`, the Potency was inconclusive: 31.6 µM [inhibitor, partial curve].
`Fc1ccc(CNCCc2ccccc2)cc1` was tested, and the Potency was inconclusive: 15.8 µM [inhibitor, partial curve].
In the case of `O=c1c(O)c(-c2ccc(O)c(O)c2)oc2c(OC[C@@H]3O[C@@H](O)[C@@H](O)[C@H](O)[C@H]3O)c(O)cc(O)c12`, the Potency is reported as inconclusive: 35.4 µM [inhibitor, partial curve].
For `COc1cc(Br)cc(/C=N/c2ncn[nH]2)c1O`, the Potency was inconclusive: 15.8 µM [inhibitor, partial curve].
`Cc1ccc(OCC(=O)c2ccc(Cl)s2)c([N+](=O)[O-])n1` was tested, and the Potency was inconclusive: 19.9 µM [inhibitor, partial curve].
In the case of `CN(Cc1ccccc1)CC(O)COc1ccc(CNCc2cccnc2)cc1` (configuration not stated), the “activity, negative = inhibition” value is reported as inactive: 4.81%.
For `Clc1ccc(OCC#CCN2CCCC2)cc1`, the Potency was inconclusive: 14.1 µM [inhibitor, partial curve].
For `COc1ccc(CNc2ncnc3ccc(-c4ccc(N(C)C)cc4)cc23)c(OC)c1`, the Potency was inconclusive: 22.3 µM [inhibitor, partial curve].
`OCCN(Cc1ccccc1)CC1CC2C=CC1C2` (configuration not stated) was tested, and the Potency was inconclusive: 20 µM [inhibitor, partial curve].
For `O=C(CN1CCC(n2nnc3cc(F)ccc32)CC1)NCc1ccco1`, the Potency was inconclusive: 19.9 µM [inhibitor, single point].
With `Cc1cc(C)c(S(=O)(=O)c2ccccc2)c(OC(=O)c2c(F)cccc2F)n1` the Potency was inconclusive: 15.8 µM [inhibitor, single point].
In the case of `Cc1c(Cl)cccc1NC(=S)NCC(C)C`, the “activity, negative = inhibition” value is reported as inactive: -1.6%.
For `c1ccc2c(c1)oc1c(Nc3ccc(CN4CCOCC4)cc3)ncnc12`, the “activity, negative = inhibition” value was inactive: -3.44%.
`O=S(=O)([N-]c1nc2ccccc2nc1-[n+]1ccc(Cc2ccccc2)cc1)c1ccc(Br)s1` was tested, and the Potency was inconclusive: 2.51 µM [inhibitor, full curve].
`Clc1c(OCCCn2ccnc2)ccc2ccccc12` was tested, and the Potency was inconclusive: 17.8 µM [inhibitor, partial curve].
`O=C(Nc1ccc(-c2csnn2)cc1)C1CC1` was tested, and the Potency was inconclusive: 31.5 µM [inhibitor, single point].
For `Cc1ccc(CN2C(=O)C[C@@H](NS(=O)(=O)c3ccc4ccccc4c3)C/C=C\C2c2ccc(C)cc2)cc1` (some centres not stated), the Potency was inconclusive: 22.3 µM [inhibitor, single point].
In the case of `CCOc1cccc(C(=O)c2ccc(O)c(O)c2O)c1`, the Potency is reported as active: 19.9 µM.
`Cc1nc(N)sc1-c1csc(Nc2cccc(O)c2)n1` was tested, and the Potency was inconclusive: 8.91 µM [inhibitor, partial curve].
In the case of `COc1ncnc2c1NC1=C(S2)C(=NCCC(=O)O)CC(C)(C)C1`, the Potency is reported as inconclusive: 20 µM [inhibitor, partial curve].
In the case of `Oc1ccc(Oc2ccc(Oc3ccc(O)cc3)cc2)cc1`, the “activity, negative = inhibition” value is reported as inactive: 6.69%.
`S=C1NC(C23CC4CC(CC(C4)C2)C3)=CC(c2ccc3c(c2)OCO3)N1` (configuration not stated) was tested, and the Potency was inconclusive: 22.3 µM [inhibitor, single point].
With `Cn1c(=O)c2[nH]cnc2n(-c2ccccc2)c1=O` the Potency was inconclusive: 25.1 µM [inhibitor, single point].
With `CN(C)c1ccc(N/C=C/C(=O)C(F)(F)F)cc1` the Potency was inconclusive: 9.98 µM [inhibitor, partial curve].
`COc1cc(C)c(CNCCc2c[nH]c3ccccc23)cc1C` was tested, and the Potency was inconclusive: 17.8 µM [inhibitor, partial curve].
`CN(CCOc1ccccc1)C(=O)CCc1c[nH]c2ccccc12` was tested, and the “activity, negative = inhibition” value was inactive: -0.271%.
With `C#Cc1ccc([C@@H]2C=C(C(=O)N3CCN(Cc4ccccc4)CC3)O[C@H](OCC)[C@H]2CCCO)cc1` the “activity, negative = inhibition” value was inactive: 2.02%.
With `COc1ccc(C)c2sc(NC(=O)C3=COCCO3)nc12` the “activity, negative = inhibition” value was inactive: -27%.
With `Cc1cccc(NC(=S)NCC2CCCO2)c1` (configuration not stated) the “activity, negative = inhibition” value was inactive: -2.29%.
In the case of `CC(=O)OCC1=C(C(=O)O)N2C(=O)C(NC(=O)Cc3cccs3)C2SC1` (configuration not stated), the Potency is reported as inconclusive: 15.8 µM [inhibitor, partial curve].
With `COc1cccc(NC(=S)N/N=C2\CC3CCC2(C)C3(C)C)c1` (configuration not stated) the “activity, negative = inhibition” value was inactive: 7.39%.
With `COc1ccc(CCNC(=O)c2ccc(-c3ccc([N+](=O)[O-])cc3)o2)cc1OC` the “activity, negative = inhibition” value was inactive: -3.36%.
For `O=C(CN1CCCC1)NC(c1ccccc1)c1ccccc1`, the Potency was inconclusive: 20 µM [inhibitor, partial curve].
For `Cc1ccc(NC2=C/C(=N\S(=O)(=O)c3cccs3)c3ccccc3C2=O)c(C)c1`, the Potency was inconclusive: 1.58 µM [inhibitor, full curve].
In the case of `CCCCC(CC)CNS(=O)(=O)c1ccc2c(c1)CCN2C(=O)CCC(=O)O` (configuration not stated), the Potency is reported as inconclusive: 14.1 µM [activator, partial curve].
In the case of `C=Cn1cc[n+](CC(=O)c2ccc(-c3ccccc3)cc2)c1`, the “activity, negative = inhibition” value is reported as inactive: -7.34%.
`COc1ccc(CNC(=S)Nc2ccccc2Cl)cc1` was tested, and the Potency was inconclusive: 39.8 µM [inhibitor, single point].
`COC(=O)C1=C(C)NC(=O)/C1=C\c1cc(C)n(-c2ccccc2F)c1C` was tested, and the Potency was inconclusive: 19.9 µM [inhibitor, single point].
With `COc1ccc(CCNCc2cccn2C)cc1` the Potency was inconclusive: 22.4 µM [inhibitor, single point].
In the case of `Cc1cccc2cc(C#N)c(NCCNC(=O)COc3ccccc3)nc12`, the Potency is reported as active: 15.8 µM.
With `COCCCN(C(=S)Nc1cc(Cl)cc(Cl)c1)C(C)c1ccccn1` (configuration not stated) the Potency was inconclusive: 19.9 µM [inhibitor, single point].
% is scaled to controls: 0 for no effect and ±100 for the full control effect; potency is read from the fitted curve at half-maximal effect; tags tell the direction and shape of the fitted curve.
Also: nearly all actives have a fitted effect of over 55% in size.
